# In PubChem BioAssay (EPA / NIEHS):
# For part of these data: This list holds what a sample rich in hits left over. The entries are a selection whose mix differs from that of the whole data set. Inconclusive results are not listed. Calls of active or inactive are those of the source. The calls were made as follows, unless noted: active = hit-call score of the fitted dose curve at least 0.9, where 1 is the maximum; inactive = score below 0.9.
# Legend:
# [1] = target: human Peroxisome Proliferator-activated Receptor alpha (PPARa), PPARA (gene 5465) (UniProt Q07869); assay: ATG_PPARa_TRANS: Attagene TRANS-FACTORIAL HepG2 Assay for human Peroxisome Proliferator-activated Receptor alpha (PPARa) (AID 2283001; active = hit-call score of the fitted dose curve at least 0.9, where 1 is the maximum)
# Procedure, shortened: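 Reporter transcripts quantified by RT-PCR plus capillary electrophoresis after 24 h treatment, fitted upward relative to DMSO. Cells: human HepG2 transiently carrying multiple GAL4-UAS reporter units driven by NR-Gal4 chimeras.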
# [2] = target: human Vitamin D Receptor (VDR), VDR (gene 7421) (UniProt P11473); assay: ATG_VDR_TRANS: Attagene TRANS-FACTORIAL HepG2 Assay for human Vitamin D Receptor (VDR) (AID 2283022; active = hit-call score of the fitted dose curve at least 0.9, where 1 is the maximum)
# Procedure, shortened: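 Transactivation by an exogenous VDR-Gal4 chimera in transiently transfected HepG2 cells was measured as reporter transcript level 24 hours after chemical treatment. RT-PCR products were analysed by capillary electrophoresis and fitted in the positive direction relative to DMSO.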
# [3] = target: human Peroxisome Proliferator-activated Receptor delta (PPARd), PPARD (gene 5467) (UniProt Q03181); assay: ATG_PPARd_TRANS: Attagene TRANS-FACTORIAL HepG2 Assay for human Peroxisome Proliferator-activated Receptor delta (PPARd) (AID 2283002; active = hit-call score of the fitted dose curve at least 0.9, where 1 is the maximum)
# Procedure, shortened: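 Read-out is induced reporter mRNA, quantified by RT-PCR with fluorescent labelling and capillary electrophoresis after 24 h dosing. Cells are HepG2 transiently carrying multiple GAL4-UAS reporter units driven by exogenous NR-GAL4 chimeras; DMSO serves as baseline.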
# [4] = target: Retinoic acid receptor RXR-alpha (Homo sapiens) (UniProt P19793); assay: ATG_RXRa_TRANS: Attagene TRANS-FACTORIAL HepG2 Assay for human Retinoid X Receptor alpha (RXRa) (AID 2283012; active = hit-call score of the fitted dose curve at least 0.9, where 1 is the maximum)
# Procedure, shortened: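 TRANS format reporting activity of exogenous RXRa-Gal4 chimera in transiently transfected HepG2, 24 h exposure. Reporter transcripts quantified by RT-PCR with capillary electrophoresis, with gain of signal scored relative to DMSO.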
# [5] = target: Peroxisome proliferator-activated receptor gamma (Homo sapiens) (UniProt P37231); assay: ATG_PPARg_TRANS: Attagene TRANS-FACTORIAL HepG2 Assay for human Peroxisome Proliferator-activated Receptor-gamma (PPARg) (AID 2283007; active = hit-call score of the fitted dose curve at least 0.9, where 1 is the maximum)
# Procedure, shortened: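 HepG2 cells transiently transfected with multiplexed GAL4-UAS reporter units and exogenous chimeric NR-Gal4 proteins; reporter mRNA quantified after 24 h compound exposure by RT-PCR, fluorescent labelling, HpaI digestion and capillary electrophoresis; gain-of-signal fitted versus DMSO baseline.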
# [6] = read-out: Intercellular Adhesion Molecule 1 (ICAM1), ICAM1 (gene 3383); assay: BSK_3C_ICAM1: BioMAP Diversity Plus: 3C Assay for Intercellular Adhesion Molecule 1 (ICAM1) Biomarker Activity (AID 2283003); settings: actives raise or lower the signal; primary human endothelial cells (HUVEC)
# Procedure, shortened: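 ELISA readout of ICAM1 in human umbilical vein endothelial cells in the 3C system, taken 24 h post-dose. Gain or loss of signal versus DMSO was fitted in both directions, with SRB total-protein staining run in parallel.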
# [7] = BSK_3C_Proliferation: Cell Proliferation Assessment in the BioMAP Diversity Plus: 3C Assay (AID 2283006); settings: primary human endothelial cells (HUVEC);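 also: potency may reflect either rise or fall in cell number versus DMSO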
# Procedure, shortened: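 Proliferation as total protein: sulforhodamine B (0.1%) stain of TCA-fixed subconfluent human umbilical vein endothelial cells, absorbance 560 nm, 48 h after dosing. Activity fitted in both directions against DMSO baseline.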
# [8] = read-out: Plasminogen activator inhibitor-1 (PAI1), SERPINE1 (gene 5054); assay: BSK_BE3C_PAI1: BioMAP Diversity Plus: BE3C Assay for Plasminogen activator inhibitor-1 (PAI1) Biomarker Activity (AID 2283037); settings: actives raise or lower the signal; primary human bronchial epithelial cells
# Procedure, shortened: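 PAI-1 was measured by ELISA in human primary bronchial epithelial cultures 24 h after chemical dosing, with cytotoxicity checked by SRB total-protein staining in parallel cultures. Activity was fitted in both directions relative to DMSO.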
# [9] = read-out: Thrombomodulin, THBD (gene 7056); assay: BSK_CASM3C_Thrombomodulin: BioMAP Diversity Plus: CASM3C Assay for Thrombomodulin Biomarker Activity (AID 2283051); settings: actives raise or lower the signal; primary human coronary artery smooth muscle cells;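 also: thrombomodulin protein level measured by ELISA 24 h after dosing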
# [10] = read-out: Forkhead box O3 (FOXO3), FOXO3 (gene 2309); assay: LTEA_HepaRG_FOXO3: Life Technologies and Expression Analysis (LTEA) Assay for Forkhead box O3 (FOXO3) using HepaRG (AID 2283459); settings: actives raise or lower the signal; mRNA level, 48 h
# Procedure, shortened: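 FOXO3 transcript measured by qRT-PCR (normalized to ACTB, GAPDH, POLR2A) after 48 h exposure of HepaRG cells in serum-free induction medium. Duplicates, eight half-log concentrations up to 100 uM, 0.5% DMSO; gain or loss fitted against DMSO.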
# [11] = read-out: Glutathione S-transferase M3 (GSTM3), GSTM3 (gene 2947); assay: LTEA_HepaRG_GSTM3: Life Technologies and Expression Analysis (LTEA) Assay for Glutathione S-transferase M3 (GSTM3) using HepaRG (AID 2283501); settings: actives raise or lower the signal; mRNA level, 48 h
# Procedure, shortened: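 GSTM3 transcript levels came from Fluidigm TaqMan qRT-PCR normalized to three housekeeping genes, fitted in both directions against DMSO. HepaRG cultures received chemicals for 48 h in serum-free induction medium (0.5% DMSO), 8 half-log concentrations up to 100 uM, duplicate.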
# [12] = CCTE_Simmons_MITO_basal_resp_rate: CCTE's HepG2 Seahorse XF Respirometric Screening Assay at Basal Respiratory State, Simmons Lab (AID 2284001); settings: actives raise or lower the signal
# Procedure, shortened: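 Basal-phase OCR in HepG2 cells, read at 6-min intervals across a 72-min run, with test compound injected at 125 nM–100 uM final (7 points). Fitted both directions against DMSO; three biological replicates per concentration.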
structure (smiles),measurement,setting,value
O=C(O)c1cc[c]([Hg][Cl])cc1,outcome,[1],inactive
same,outcome,[2],inactive
O=c1oc2ccccc2c(O)c1C(CC(O)c1ccc(-c2ccc(Br)cc2)cc1)c1ccccc1 (configuration not stated),outcome,[3],inactive
same,outcome,[4],inactive
Clc1ccc(C2(Cn3cncn3)CC(Br)CO2)c(Cl)c1 (configuration not stated),outcome,[5],inactive
Oc1cc(Cl)c(Cl)cc1Cl,outcome,[6],inactive
same,AC50,[7],active: 26 µM
same,AC50,[8],active: 33.4 µM
same,outcome,[9],inactive
same,outcome,[10],inactive
same,outcome,[11],inactive
same,AC50,[12],active: 11.5 µM
